Some of the results follow. These are further read-outs of the screen, such as a control signal, another cell line or another target. No call is given for them.
Assays:
Test in all cases: Primary Screen for Target Class Profiling of Small Molecule Inhibitors of Methyltransferases
[1] = target: Glycine N-methyltransferase (Homo sapiens) (UniProt Q14749); settings: purified enzyme, MTase-Glo SAH luminescence; measured here: GNMT inhibition; at 40 µM; stronger effect = lower value
Summary of the method: (§1)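 Each enzyme was reacted with SAM and its substrate, with compounds tested once at 40 uM; SAH formed was read by MTase-Glo luminescence.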

[2] = target: Guanidinoacetate N-methyltransferase (Homo sapiens) (UniProt Q14353); settings: purified enzyme, MTase-Glo SAH luminescence; measured here: GAMT inhibition; at 40 µM; stronger effect = lower value
Summary of the method: as §1

[3] = target: Histamine N-methyltransferase (Homo sapiens) (UniProt P50135); settings: purified enzyme, MTase-Glo SAH luminescence; measured here: HNMT inhibition; at 40 µM; stronger effect = lower value
Summary of the method: as §1

[4] = target: Nicotinamide N-methyltransferase (Homo sapiens) (UniProt P40261); settings: purified enzyme, MTase-Glo SAH luminescence; measured here: NNMT inhibition; at 40 µM; stronger effect = lower value
Summary of the method: as §1

[5] = target: Phenylethanolamine N-methyltransferase (Homo sapiens) (UniProt P11086); settings: purified enzyme, MTase-Glo SAH luminescence; measured here: PNMT inhibition; at 40 µM; stronger effect = lower value
Summary of the method: as §1
% is set by controls: 0 for no effect and ±100 for the full control effect.

| Structure (SMILES) | activity change, negative = inhibition [1] | activity change, negative = inhibition [2] | activity change, negative = inhibition [3] | activity change, negative = inhibition [4] | activity change, negative = inhibition [5] |
| --- | --- | --- | --- | --- | --- |
| COc1cc(=O)n2c(c1C(=O)NC1CCCCCC1)CCCC2 | -0.371% | 3.09% | 2.81% | 1.22% | 6.84% |
| O=C1NC2(Cc3ccccc31)CN([S+](=O)([O-])c1cccs1)C2 | -7.01% | -3.81% | -3.08% | -23.4% | -10.1% |
| CN1C(=O)c2cc3ccccc3n2CC1(C)C(=O)NCC(=O)NCc1ccccc1F (stereo not drawn) | 4.03% | 4.08% | 5.58% | 12.8% | 1.2% |
| CC1(C(=O)NC2CCCCCC2)Cn2c(cc3occc32)C(=O)N1c1ccc(Cl)cc1 (stereo not drawn) | -0.325% | 3.27% | 5.96% | 7.41% | 1.01% |
| CC(C)Oc1ccc(CNC(=O)c2cc3n(n2)CC(C)(C(=O)NCc2ccc(F)cc2)N(C)C3=O)cc1 (stereo not drawn) | -7.78% | -5.37% | -11.1% | -6.77% | -3.65% |
| CC1(C(=O)NC2CCCCC2)Cn2c(ccc2-c2ccco2)C(=O)N1CCCc1ccccc1 (stereo not drawn) | -15.5% | -4.58% | -4.99% | -17.8% | -3.04% |
| O=C1CO[C@H]2CCN(Cc3ccccn3)CC[C@@H]2N1c1ccccc1 | -4.42% | 0.697% | -1.88% | 0.979% | -3.21% |
| O=C(O)c1cc(-c2ccncc2)cc(S(=O)(=O)N2CCCCCC2)c1 | -7.12% | -5.67% | -2.79% | -7.92% | -1.36% |
| CN1C(=O)c2cc(C(=O)NCc3ccc(Cl)cc3)nn2CC1(C)C(=O)NCc1ccccc1 (stereo not drawn) | 9.83% | 0% | 8.79% | 11.7% | 6.41% |
| COc1ccc2cc3n(c2c1)CC(C)(C(=O)NC1CCCC1)N(Cc1ccco1)C3=O (stereo not drawn) | -6.23% | 8.03% | 2.9% | -3.65% | -3.43% |
| CN1CCc2c(c3ccccc3n2Cc2ccc(C(=O)NO)cc2)C1 | -3.2% | -15% | -37% | -24.7% | -51.5% |
| Cc1ccc(NC(=O)CSc2nnc3[nH]c(=O)c(C)nn23)c(C)c1 | 0.572% | 4.38% | -3.88% | -7.83% | -5.76% |
| CCn1c2c(c(=O)n1-c1ccccc1)CCN(C(=O)C1CCC1)C2 | 4.28% | 3.66% | 1.24% | -2.63% | -12.2% |
| COC(=O)C1=COC(OC2OC(CO)C(O)C(O)C2O)C2C(C)C(OC(C)=O)C(OC(=O)c3ccccc3)C12 (stereo not drawn) | 2.38% | 2.05% | 9.37% | -9.51% | -2.35% |
| Cc1cccc(NC(=O)Cn2nc3n(C(C)C)c(=O)c4ccc(C(=O)NC(C)C)cc4n3c2=O)c1 | 3.4% | 4.16% | 2.78% | 1.56% | -1.24% |
| CC1CCCN(C(=O)Cn2c(=O)oc3cc(S(=O)(=O)N4CC(C)CC(C)C4)ccc32)C1 (stereo not drawn) | 0.183% | -7.22% | 3.16% | -2.3% | -10.5% |
| CCc1cc2c(cc3n2CC(C)(C(=O)NC2CCCCCC2)N(Cc2ccccc2OC)C3=O)s1 (stereo not drawn) | 0.623% | 0% | 1.4% | 2.07% | -2.64% |
| CCc1noc([C@@H]2CC(F)(F)CN2C(=O)c2ccco2)n1 | -0.222% | 2.52% | 1.25% | 0.343% | -0.064% |
| CCCC1c2ccc(C)n2CCN1C(=O)Nc1cc(Cl)c(OC)cc1OC (stereo not drawn) | -3.02% | 2.01% | -7.37% | -2.92% | -8.07% |
| COCCOCCOc1ccc(C2=N[C@@](C)(C(=O)O)CS2)c(O)c1 | 1.27% | -0.724% | 4.28% | -7.42% | 2.65% |

| Structure (SMILES) | activity change, negative = inhibition [1] | activity change, negative = inhibition [2] | activity change, negative = inhibition [3] | activity change, negative = inhibition [4] | activity change, negative = inhibition [5] |
| --- | --- | --- | --- | --- | --- |
| O=C(c1c[nH]c(=O)[nH]1)N1CC[C@@H]2[C@@H](CCC(=O)N2CC2CCNCC2)C1 | 0.843% | 1.08% | 2.3% | -1.04% | 0.888% |
| CCOCCCNC(=O)CCn1ccc2cc(S(=O)(=O)N3CCCC3)ccc21 | -1.28% | 4.86% | -0.064% | 2.8% | 1.38% |
| CCCn1c(=O)c2ccc(C(=O)NC(C)CC)cc2n2c(=O)n(CC(=O)Nc3ccc(CC)cc3)nc12 (stereo not drawn) | 1.12% | -0.041% | -2.13% | -3.02% | -5.06% |
| COCCc1noc(CC2CCOC3(CCN(C(=O)C4CCOCC4)CC3)C2)n1 (stereo not drawn) | 1.18% | -1.26% | 1.89% | -1.67% | -2.27% |
| CCCCN(CC)CCN1C(=O)c2cc3sccc3n2CC1(C)C(=O)NC1CCCCCC1 (stereo not drawn) | -5.15% | 3.72% | -21.7% | -8.8% | -1.14% |
| CC1=C2C[C@@]3(C)C(CCC[C@@H]3C)C(O)C2OC1=O (stereo partly drawn) | 4.94% | 5.81% | 6.63% | -9.58% | 6.42% |
| O=C(NCc1ccc2c(c1)OCO2)c1nc(-c2ccc(F)cc2)c2cnccn12 | -7.47% | -0.259% | -0.238% | -6.79% | 12.3% |
| CCCCN1C(=O)c2cc(C(=O)Nc3cc(Cl)ccc3C)nn2CC1(C)C(=O)NC1CCCC1 (stereo not drawn) | 2.93% | 0% | 2.17% | 2.16% | 2.59% |
| COCc1ncc(C)n1CCNC(=O)c1cc(-c2cc(C)ccc2C)n[nH]1 | -2.16% | -0.791% | -3.94% | -5.75% | -3.32% |
| CN1C(=O)CC[C@H]1c1cccnc1 | 3.33% | 8.16% | 2.05% | -2.67% | 9.06% |
| COCCCNC(=O)c1cc(C)nc2onc(C3CCCNC3)c12 (stereo not drawn) | -1.89% | 0.726% | 0.824% | 3.41% | 0.939% |
| CCOC(=O)c1cc2n(n1)CC(C)(C(=O)NC1CCCC1)N(c1cccc(SC)c1)C2=O (stereo not drawn) | 0.303% | 5.12% | -3.09% | 2.87% | 2.8% |
| CC(C)c1ccc(N2C(=O)N[C@@H]3CCN(C(=O)C4CCCC4)[C@@H]3C2=O)cc1 | -5.78% | -12.2% | -2.63% | -6.64% | -0.799% |
| COCCC1(NC(=O)C2CC2)CCN(C(=O)c2ccccn2)CC1 | -0.819% | -1.8% | 1.56% | 0.08% | -4.6% |
| CCCNC(=O)c1c(-c2ccccc2)cc(=O)n2c1CCC2 | -4.21% | -9.52% | -3.24% | -9.95% | -6.46% |
| CCCC1c2cccn2CCN1C(=O)Nc1ccccc1OC (stereo not drawn) | 3.96% | 0.658% | -20.7% | 6.62% | 10.7% |
| Cc1c(CN2CCN(C(=O)[C@H](C)O)CC2)sc2c(N3CCOCC3)nc(-c3cnc(N)nc3)nc12 | – | 6.83% | – | -27.4% | -14.2% |
| O=C(c1c[nH]c2ncccc12)N1CCC(Cc2ccccc2)CC1 | -15% | -8.83% | -16.1% | -26.2% | -3.45% |
| CC(C)Cn1c(=O)c2ccc(C(=O)NC(C)C)cc2n2c(=O)n(Cc3ccc(F)cc3Cl)nc12 | 3.42% | 4.72% | 4.27% | -1.34% | 2.59% |
| CN1CCC(OC2CCN(C(=O)c3cccc(F)c3)CC2)CC1 | -2.77% | 1.84% | -10.8% | -2.83% | -3.61% |

From PubChem BioAssay AID1745853 (National Center for Advancing Translational Sciences (NCATS), 2022)
